The text below walks through data of patent publication US6846933B1, “Antimycobacterial compounds and method for making the same” (priority 2000, dated 2005).

On the data set, the source says:
A general procedure was developed to estimate the relative lipophilicities of compounds by observation of their partitioning between an aqueous solvent and water in biphasic liquid-liquid extraction. As depicted in FIG. 1, the ratio of amounts in each of the respective phases was obtained and compared to the ratio for INH as standard, viz., ratio is set to unity. The compounds of the invention have been prepared with lipophilicities several orders of magnitude greater than that of INH. The advent of a quantitative method for lipophilicity determinations has been particularly important in the examination of the compounds disclosed herein. It is unexpected that the compounds of the invention, such as the Schiff bases and oxadiazolines, have increases in molecular weights by a factor of as much as 2 or more with respect to isoniazid and also have increases in lipophilicities of as much as several orders of magnitude. For example, among the oxadiazolines, where substituent groups R1 or R2 may be aromatics substituted with polarizing functional groups, measured lipophilicities are unexpectedly high.
A general procedure was devised to estimate relative lipophilicities of the compounds of the invention by observation of their partitioning between an organic phase and water. Thus, to a weighed amount of compound (0.75 mmole) in a flat-bottomed Florence flask containing a stirring bar was delivered by pipet distilled water (5 mL) and also by pipet chloroform (5 mL). The flask was sealed with a cork and paraffin, and the contents were magnetically stirred vigorously for 30 minutes. The cork, paraffin and stirring bar were carefully removed, and the contents of the flask were transferred to a 60 mL separatory funnel. The layers were allowed to stand to achieve good separation. The layers were separated using the separatory funnel. Each layer was individually allowed to evaporate to dryness over night on a pre-weighed watchglass. The ratio of amounts of dry compound remaining after evaporation of the layers on the two watchglasses was obtained (chloroform to water). This ratio was then compared to the same ratio for isoniazid as standard, giving the estimate of relative lipophilicities. The lipophilicity comparison was expressed as • [Acmpd(CHCl3)/Acmpd(H2O): Ainh(CHCl3)/Ainh(H2O)], where • Acmpd(solvent) refers to the amount of compound in chloroform or water, as appropriate and • Ainf(solvent) refers to the amount of isonicotinic acid hydrazide in chloroform or water, as appropriate. Representative examples of the comparisons are provided in FIG. 1 and in the following Chart. Within the Chart, numbers refer to compounds derived from the individual examples of experimental procedures within each family. Chart. Quantitative Estimates of Relative Lipophilicities of the Compounds of the Invention Compound of Schiff Base Example (Relative Lipophilicity) • 43(200) • 45(45) • 47(316) • 48(566) • 49(433) • 51(400) • 52(189) Compound of Oxadiazoline Example (Relative Lipophilicity) • 4(35,667) • 8(1333) • 9(1426) • 10(3080) General Structural Outline for Schiff Base Synthesis [drawing 48]

`CC(=O)N1N=C(c2ccncc2)OC1c1ccccc1[N+](=O)[O-]` (stereo not shown) [Oxadiazoline Example 8, 2-(2-Nitrophenyly)-3-acetyl-5-(4-pyridyl)-1,3,4-oxadiazoline]: the “Relative Lipophilicity” value came out at 1333.
Regarding `CC(=O)N1N=C(c2ccncc2)OC1c1ccc(F)c(F)c1` (stereo not shown) [Oxadiazoline Example 9, 2-(3,4-Difluorophepyl)-3-acetyl-5-(4-pyridyl)-1,3,4-oxadiazoline], the “Relative Lipophilicity” value was 1426 and the “lipophilicity compared with INH (in words)” value is listed as “some three orders of magnitude greater than that of INH”.
For `CC(=O)N1N=C(c2ccncc2)OC1c1ccc(Cl)c(Cl)c1` (stereo not shown) [Oxadiazoline Example 10, 2-(3.4-Dichlorophenyl)-3-acetyl-5-(4-pyridyl)-1,3,4-oxadiazoline], the “Relative Lipophilicity” value is listed as 3080.
`O=C(NN=Cc1cccc([N+](=O)[O-])c1)c1ccncc1` [Schiff Base Example 43, Isonicotinoylhydrazone of 3-Nitrobenzaldehyde]: the “Relative Lipophilicity” value stood at 200.
As to `O=C(NN=Cc1cc([N+](=O)[O-])ccc1Cl)c1ccncc1` [Schiff Base Example 45, Isonicotinoylhydrazone of 2-Chloro-5-nitrobenzaldehyde], the “Relative Lipophilicity” value came to 45.
The same measure, in the same setting: to `O=C(NN=Cc1c(Cl)cccc1Cl)c1ccncc1` [Schiff Base Example 48, Isonicotinoylhydrazone of 2.6-Dichlorobenzaldehyde] belongs 566.
On the same count and under the same terms, to `O=C(NN=Cc1cccc(Cl)c1Cl)c1ccncc1` [Schiff Base Example 49, Isonicotinoylhydrazone of 2,3-Dichlorobenzaldehyde] belongs 433.
For `O=C(NN=Cc1ccc(F)c(F)c1)c1ccncc1` [Schiff Base Example 51, Isonicotinoylhydrazone of 3,4-Difluorobenzaldehyde], the “Relative Lipophilicity” value was 400.
As for `O=C(NN=Cc1c(F)cccc1F)c1ccncc1` [Schiff Base Example 52, Isonicotinoylhydrazone of 2,6-Difluorobenzaldehyde], the “Relative Lipophilicity” value was determined as 189.
